Reference: the supplement of paper PMC3334620
Whole data set: some 33,000 sequences, median “E-score (-0.5 to 0.5)” near -0.054, cut for the highest 2% near 0.35. The list shows a part of the results.

Biological target: T1, Stb5 (UniProt P38699)
T1 sequence: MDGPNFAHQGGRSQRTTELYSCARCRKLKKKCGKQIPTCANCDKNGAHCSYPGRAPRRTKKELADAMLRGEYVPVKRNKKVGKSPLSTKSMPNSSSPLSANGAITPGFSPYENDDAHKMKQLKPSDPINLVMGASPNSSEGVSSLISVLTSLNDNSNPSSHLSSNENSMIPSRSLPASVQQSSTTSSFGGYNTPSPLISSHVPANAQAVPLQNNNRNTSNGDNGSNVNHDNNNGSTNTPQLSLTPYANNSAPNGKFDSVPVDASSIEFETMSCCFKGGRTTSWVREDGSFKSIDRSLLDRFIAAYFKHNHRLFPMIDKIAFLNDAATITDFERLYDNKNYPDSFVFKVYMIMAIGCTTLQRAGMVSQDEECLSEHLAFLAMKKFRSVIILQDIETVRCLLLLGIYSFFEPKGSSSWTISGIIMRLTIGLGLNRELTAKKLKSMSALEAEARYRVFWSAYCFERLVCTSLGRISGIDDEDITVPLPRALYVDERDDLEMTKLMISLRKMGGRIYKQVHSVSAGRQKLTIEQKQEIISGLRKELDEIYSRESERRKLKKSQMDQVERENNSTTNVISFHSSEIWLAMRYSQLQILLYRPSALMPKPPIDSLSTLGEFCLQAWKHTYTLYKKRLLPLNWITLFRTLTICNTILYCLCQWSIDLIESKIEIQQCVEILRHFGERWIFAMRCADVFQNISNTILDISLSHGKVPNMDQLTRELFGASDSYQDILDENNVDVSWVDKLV
Assay: PBM E-score (8-mer binding enrichment) (E-score (-0.5 to 0.5)); higher = stronger / more preferred TF binding; most listed sequences are background and not binding sites
Settings: protein concentration: 200 nM; construct: GST-full length
Summary of the method: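 Each ungapped eight-base word and its reverse complement, pooled, received an E-score from the Universal PBM Analysis Suite. Underlying scans, normalised with masliner, recorded fluorescent anti-GST bound to GST-tagged yeast transcription factors. These were applied at about 100-200 nM to universal all-10-mer Agilent arrays double-stranded by primer extension.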

| Sequence | PBM E-score |
| --- | --- |
| CAGGAACC | -0.143 |
| CACGTCAA | -0.11 |
| ATATCCAT | -0.0548 |
| AGATCTAT | 0.0233 |
| AATTGGTC | 0.0484 |
| CGGGTACC | 0.0398 |
| ATCCGTCC | 0.13 |
| GAAACTTC | -0.0413 |
| ATTTCCAC | 0.0627 |
| ATTAAAGG | 0.0961 |
| AGCTCTTG | -0.388 |
| CCCTTACC | -0.125 |
| ACGAACCG | -0.0115 |
| AGTGCTGA | -0.186 |
| ACGGCGGC | 0.288 |
| CGGTCCAG | 0.00878 |
| AACAACGC | 0.021 |
| ATATATGA | -0.153 |
| AGCCTAAT | -0.324 |
| AATATTAA | 0.0579 |
| GACGTACC | -0.0651 |
| ACGCTAGG | -0.168 |
| CTTTCGTA | -0.115 |
| GCCAGGCA | -0.0827 |
| ACGTCAAA | -0.248 |

| Sequence | PBM E-score |
| --- | --- |
| CACCCTTA | -0.0843 |
| GTATGATA | -0.0305 |
| AGGGTCCC | -0.238 |
| ATCCCTGA | -0.21 |
| GCGAAGCC | -0.104 |
| CCGAAAAG | 0.0876 |
| CTGTCTCA | -0.11 |
| CAATATCC | 0.176 |
| AGTGCGGA | 0.198 |
| AGGGCCAC | -0.303 |
| CCGGCTCC | 0.162 |
| GTTCGACA | 0.0077 |
| ACGTAATG | 0.0151 |
| AAACAGAT | -0.222 |
| AGCTTTGG | -0.165 |
| AAAATCGT | -0.0471 |
| CAGAGCGC | -0.0425 |
| AGATCCAT | 0.0463 |
| GTGCCAAC | 0.112 |
| TAAACTTA | -0.172 |
| CTGTTTCA | -0.0942 |
| ATGGGAGA | -0.331 |
| GGAGAACC | 0.0343 |
| AGGCGCGG | 0.244 |
| TGAAGCCA | -0.164 |

| Sequence | PBM E-score |
| --- | --- |
| AAGCTGGT | -0.381 |
| CCACGTTC | -0.0756 |
| ATAACAGC | 0.329 |
| CTCTCAAA | -0.154 |
| GGTAAGGA | -0.148 |
| ATTGCTTG | -0.28 |
| CGTCCACC | -0.124 |
| AAAACAAT | -0.191 |
| CATTGGGC | -0.0666 |
| GACTTCAC | -0.0283 |
| ATCCTTCA | -0.0629 |
| GCACTCAC | -0.17 |
| GCGAGCGC | 0.0927 |
| GGCTTAAA | 0.249 |
| AATTAAAT | -0.119 |
| CAGCCGAG | -0.132 |
| CCATTTCC | 0.0447 |
| GCGTTTTA | 0.0748 |
| CACGATAC | -0.158 |
| AATAATAA | 0.0109 |
| TCACGCCA | -0.261 |
| GTCCAAGA | -0.0807 |
| AAGTACCA | -0.0936 |
| AGACTCCA | -0.139 |
| TAGTTGAA | 0.0136 |

| Sequence | PBM E-score |
| --- | --- |
| TATAGGCA | -0.262 |
| AGTAAGAG | -0.161 |
| TAAACTGA | 0.0428 |
| CACACCGC | 0.394 |
| AACATAGG | -0.044 |
| GCGTCACA | -0.183 |
| ACGTCGGC | 0.27 |
| CCTCCAAA | -0.0727 |
| ACCGCACA | 0.169 |
| AAAGGCTA | -0.2 |
| ACCTATTC | 0.163 |
| AAATCGGA | 0.234 |
| GTCATTGA | -0.109 |
| GATTCTAA | -0.153 |
| AAGTCCGG | 0.43 |
| GCTAAGTA | -0.0566 |
| CCTTTGCA | -0.0749 |
| AGCGGCCT | 0.377 |
| AGCTGACA | -0.0791 |
| CCGTATTC | 0.073 |
| ACGCTCGA | -0.15 |
| GCTGCGCA | 0.0917 |
| AGTTGTAG | -0.228 |
| ACAAGGGA | -0.135 |
| ATGGGCAG | -0.202 |

| Sequence | PBM E-score |
| --- | --- |
| CCCGAAGA | 0.152 |
| CCAAACGA | -0.139 |
| TACGGCCA | 0.0496 |
| GCGAGAAC | -0.00097 |
| AGTCGACC | -0.0264 |
| GCATCCGA | 0.185 |
| CGGCTTTA | 0.439 |
| GCCCCGCA | 0.262 |
| ACAGCACA | -0.0678 |
| AACTAACG | 0.113 |
| ACCTGTCT | 0.0382 |
| ACTTAGCT | -0.191 |
| ATCTGTAA | -0.00108 |
| CTGCTTGC | -0.115 |
| CAATTGAG | -0.157 |
| GCCTAGGA | -0.16 |
| ACACCCCG | 0.331 |
| ATCTATCG | 0.0777 |
| ATTTTCTG | -0.13 |
| AAGCCCCA | -0.189 |
| ACGGAGCT | 0.373 |
| AGCAAGTC | -0.181 |
| ATAACTGC | 0.225 |
| CGCCCCTA | 0.117 |
| AACAGTAG | -0.261 |

| Sequence | PBM E-score |
| --- | --- |
| CGGACTGA | 0.359 |
| GTAACACA | 0.0304 |
| CGTACTGA | -0.0773 |
| ACGACGTC | -0.137 |
| CAAGAGAA | -0.156 |
| CGATCGGC | 0.304 |
| GGACTAAA | 0.334 |
| AAAGTCGC | 0.0343 |
| AATCAGAG | 0.123 |
| AATTTATG | 0.0298 |
| CACGGCCG | 0.156 |
| GATTTTGA | 0.0895 |
| CATACGCA | -0.124 |
| AGGACGAC | -0.155 |
| GTTGATGA | -0.12 |
| ACTCATGA | -0.0338 |
| ACCTCACC | -0.228 |
| TATATAAA | 0.0592 |
| CATTCTCA | -0.0326 |
| CCAATGGG | -0.173 |
| AGACCTTA | -0.224 |
| TATAATAA | 0.123 |
| TTTCCAAA | 0.146 |
| AGATTACG | -0.0226 |
| CAAGCTAG | -0.261 |

| Sequence | PBM E-score |
| --- | --- |
| CGCGACGA | 0.0271 |
| AGGTCGCC | -0.162 |
| AGAGTAGA | -0.181 |
| CAAACACA | -0.126 |
| CACGTTCC | -0.258 |
| ATGAAGCG | -0.158 |
| ACCGGTTC | 0.281 |
| CATCTAGC | -0.12 |
| TGGGTCAA | -0.358 |
| CATCCGCA | 0.197 |
| CGACGACG | 0.1 |
| CTTTATTA | 0.0102 |
| AAACTTAT | -0.0181 |
| AGGCAAGA | -0.0539 |
| ATCTCTTC | -0.207 |
| ACTCGCGC | 0.141 |
| CGAAAATA | 0.0942 |
| GAGAGTTA | -0.281 |
| CCATTACC | 0.152 |
| AGATCAGC | -0.129 |
| TGTGAACA | -0.149 |
| GTCGACAC | -0.0138 |
